# According to the supplement of paper PMC8728848:
# The list shows a part of the results.
# B1: Cohesin-marm-DC-ASGPR (protein)
# chain: LDITSHHHHHHDDLDAVRIKVDTVNAKPGDTVRIPVRFSGIPSKGIANCDFVYSYDPNVLEIIEIEPGDIIVDPNPDKSFDTAVYPDRKIIVFLFAEDSGTGAYAITKDGVFATIVAKVKEGAPNGLSVIKFVEVGGFANNDLVEQKTQFFDGGVNVGDTTEPATPTTPVTTPTTTDDLDAASSKFQRDLVTLRTDFSNFTSNTLAEIQALTSQGSSLQETIASLKAEVEGHKQELQAGASELQEHNKQKAHLGRCPHTCVCPSSFVCVPVHSEILLRVQQLVQDLNKLSCQVAILKNNATTERTCCPINWVEHQGSCYWFSRSGKTWPEAERYCQLENTHLVVINSREEQNFVQAHLGSAYTWMGLSDPEGVWKWVDGTDYSSGFQNWKPGQPDDWQGHGLGGGEDCAHFHPDGRWNDDVCQRSYHWVCEAGLTQASQDSHAS
# Experiments:
# Assay in all cases: glycan array binding signal (z-score within array); higher = stronger binding
# Conditions in all cases: glycan notation: IUPAC condensed, linker removed
# [1] = target: GlcNAc(b1-3)Man
# Method in brief: (§1)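 Arrays were curated from the Consortium for Functional Glycomics database, 3228 in total, and kept only where the protein sequence was available. Binding is expressed as a within-array Z-score. This score was averaged across arrays of the same protein sequence at different concentrations or buffers and across linkers, and negative values can be read as non-binding.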
# [2] = target: GlcNAc(b1-3)[GlcNAc(b1-4)][GlcNAc(b1-6)]GlcNAc
# Method in brief: as §1
# [3] = target: GlcNAc(b1-3)[GlcNAc(b1-6)]Gal(b1-4)GlcNAc
# Method in brief: as §1
# [4] = target: GlcNAc(b1-3)[GlcNAc(b1-6)]GalNAc
# Method in brief: as §1
# [5] = target: GlcNAc(b1-4)Gal(b1-4)GlcNAc
# Method in brief: as §1
# [6] = target: GlcNAc(b1-4)GlcNAc
# Method in brief: as §1
# [7] = target: GlcNAc(b1-4)GlcNAc(b1-4)GlcNAc
# Method in brief: as §1
# [8] = target: GlcNAc(b1-4)GlcNAc(b1-4)GlcNAc(b1-4)GlcNAc(b1-4)GlcNAc
# Method in brief: as §1
# [9] = target: GlcNAc(b1-4)GlcNAc(b1-4)GlcNAc(b1-4)GlcNAc(b1-4)GlcNAc(b1-4)GlcNAc
# Method in brief: as §1
# [10] = target: GlcNAc(b1-4)[GlcNAc(b1-6)]GalNAc
# Method in brief: as §1
# [11] = target: GlcNAc(b1-6)Gal(b1-4)GlcNAc
# Method in brief: as §1
# [12] = target: GlcNAc(b1-6)GalNAc
# Method in brief: as §1
# [13] = target: GlcNAc6S(b1-3)Gal(b1-4)GlcNAc
# Method in brief: as §1
# [14] = target: Kdn(a2-3)Gal(b1-3)GalNAc
# Method in brief: as §1
# [15] = target: Kdn(a2-3)Gal(b1-3)GlcNAc
# Method in brief: as §1
# [16] = target: Kdn(a2-3)Gal(b1-4)Glc
# Method in brief: as §1
# [17] = target: Kdn(a2-3)Gal(b1-4)GlcNAc
# Method in brief: as §1
# [18] = target: Kdn(a2-3)Gal(b1-4)[Fuc(a1-3)]GlcNAc
# Method in brief: as §1
# [19] = target: Kdn(a2-6)Gal(b1-4)GlcNAc
# Method in brief: as §1
# [20] = target: Man(a1-2)Man(a1-2)Man(a1-3)Man
# Method in brief: as §1
# [21] = target: Man(a1-2)Man(a1-2)Man(a1-6)[Man(a1-3)]Man
# Method in brief: as §1
# [22] = target: Man(a1-2)Man(a1-3)Man
# Method in brief: as §1
# [23] = target: Man(a1-2)Man(a1-3)[Man(a1-2)Man(a1-6)]Man
# Method in brief: as §1
# [24] = target: Man(a1-2)Man(a1-3)[Man(a1-2)Man(a1-6)]Man(a1-6)[Man(a1-2)Man(a1-2)Man(a1-3)]Man
# Method in brief: as §1
# [25] = target: Man(a1-2)Man(a1-3)[Man(a1-2)Man(a1-6)]Man(a1-6)[Man(a1-2)Man(a1-2)Man(a1-3)]Man(b1-4)GlcNAc(b1-4)GlcNAc
# Method in brief: as §1
# [26] = target: Man(a1-2)Man(a1-3)[Man(a1-6)]Man(a1-6)[Man(a1-2)Man(a1-3)]Man(b1-4)GlcNAc(b1-4)GlcNAc
# Method in brief: as §1
# [27] = target: Man(a1-2)Man(a1-6)[Man(a1-3)]Man(a1-6)[Man(a1-2)Man(a1-2)Man(a1-3)]Man
# Method in brief: as §1
# [28] = target: Man(a1-2)Man(a1-6)[Man(a1-3)]Man(a1-6)[Man(a1-2)Man(a1-2)Man(a1-3)]Man(b1-4)GlcNAc(b1-4)GlcNAc
# Method in brief: as §1
# [29] = target: Man(a1-3)[Man(a1-6)]Man
# Method in brief: as §1
# [30] = target: Man(a1-3)[Man(a1-6)]Man(a1-6)[Man(a1-2)Man(a1-3)]Man(b1-4)GlcNAc(b1-4)GlcNAc
# Method in brief: as §1
# [31] = target: Man(a1-3)[Man(a1-6)]Man(a1-6)[Man(a1-3)]Man
# Method in brief: as §1
# [32] = target: Man(a1-3)[Man(a1-6)]Man(a1-6)[Man(a1-3)]Man(b1-4)GlcNAc(b1-4)GlcNAc
# Method in brief: as §1
# [33] = target: Man(a1-3)[Man(a1-6)]Man(b1-4)GlcNAc(b1-4)GlcNAc
# Method in brief: as §1
# [34] = target: Man(a1-3)[Man(a1-6)]Man(b1-4)GlcNAc(b1-4)[Fuc(a1-6)]GlcNAc
# Method in brief: as §1
# [35] = target: Man(a1-6)Man
# Method in brief: as §1
# [36] = target: Man(b1-4)GlcNAc
# Method in brief: as §1
# [37] = target: MurNAc(b1-4)GlcNAc
# Method in brief: as §1
# [38] = target: Neu5Ac(a2-3)Gal
# Method in brief: as §1
binder,measurement,setting,value
B1,glycan array binding signal (z-score),[1],-0.289
same,glycan array binding signal (z-score),[2],-0.287
same,glycan array binding signal (z-score),[3],-0.313
same,glycan array binding signal (z-score),[4],-0.291
same,glycan array binding signal (z-score),[5],-0.283
same,glycan array binding signal (z-score),[6],-0.284
same,glycan array binding signal (z-score),[7],-0.3
same,glycan array binding signal (z-score),[8],-0.277
same,glycan array binding signal (z-score),[9],-0.29
same,glycan array binding signal (z-score),[10],-0.297
same,glycan array binding signal (z-score),[11],-0.285
same,glycan array binding signal (z-score),[12],4.74
same,glycan array binding signal (z-score),[13],-0.249
same,glycan array binding signal (z-score),[14],-0.292
same,glycan array binding signal (z-score),[15],-0.306
same,glycan array binding signal (z-score),[16],-0.297
same,glycan array binding signal (z-score),[17],-0.305
same,glycan array binding signal (z-score),[18],-0.287
same,glycan array binding signal (z-score),[19],-0.299
same,glycan array binding signal (z-score),[20],-0.117
same,glycan array binding signal (z-score),[21],-0.281
same,glycan array binding signal (z-score),[22],-0.257
same,glycan array binding signal (z-score),[23],-0.305
same,glycan array binding signal (z-score),[24],-0.308
same,glycan array binding signal (z-score),[25],-0.296
same,glycan array binding signal (z-score),[26],-0.31
same,glycan array binding signal (z-score),[27],-0.216
same,glycan array binding signal (z-score),[28],-0.287
same,glycan array binding signal (z-score),[29],-0.238
same,glycan array binding signal (z-score),[30],-0.288
same,glycan array binding signal (z-score),[31],-0.272
same,glycan array binding signal (z-score),[32],-0.3
same,glycan array binding signal (z-score),[33],-0.305
same,glycan array binding signal (z-score),[34],-0.31
same,glycan array binding signal (z-score),[35],0.424
same,glycan array binding signal (z-score),[36],-0.3
same,glycan array binding signal (z-score),[37],-0.304
same,glycan array binding signal (z-score),[38],-0.267
